Publication PMC6212790
This is one part of the list. At the low end of the ranking the order means little.

What follows are sequences tested against T1, GST-Rok-C97-191 (UniProt O34857) (assay: protein binding microarray). Conditions: Rok is a gene silencer of Bacillus subtilis; high values mean tight binding; most listed sequences are background and not binding sites; double strand, one strand shown.
T1 sequence: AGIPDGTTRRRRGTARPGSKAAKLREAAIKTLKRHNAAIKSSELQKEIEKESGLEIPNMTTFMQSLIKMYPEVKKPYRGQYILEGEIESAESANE
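Note: rank score from −0.5 (least bound) to 0.5 (best bound).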

Sequence	binding signal
GGGACATA	-0.158 E-score
AATCGTCT	-0.105 E-score
AACGGGTG	-0.0409 E-score
AGGAGGGC	-0.397 E-score
GTGTCCAA	-0.156 E-score
AAGGGGAA	-0.026 E-score
TGGCCACA	0.0325 E-score
CTAGCGAA	0.199 E-score
CATATTAC	0.22 E-score
ATATTGTA	0.363 E-score
CCGACAAG	-0.171 E-score
CGAAATAA	0.198 E-score
CCTCTAAC	-0.0549 E-score
AAACACCG	0.035 E-score
CGTCAGAC	-0.0702 E-score
ACGCTTCT	-0.142 E-score
AGCTCTTC	-0.066 E-score
GTGCATTA	0.0863 E-score
GGCTCCTA	-0.249 E-score
GCACCCCA	-0.183 E-score
CAGTAAAA	0.188 E-score
AGTGTTAA	0.0572 E-score

Sequence	binding signal
AAGACTTA	0.0286 E-score
ATGAATTA	0.293 E-score
GCAAACGC	-0.174 E-score
CACATGTG	-0.122 E-score
AGAACGCA	-0.159 E-score
ATCCTGCC	-0.077 E-score
ACCCCCTA	-0.352 E-score
AGTTTCGC	0.195 E-score
ACCAACTC	0.106 E-score
TGTATGAA	0.0242 E-score
ACCGCCAC	-0.137 E-score
GCTACACA	0.135 E-score
CCGGAACC	-0.0787 E-score
CATGTAGG	0.155 E-score
CAAACGCG	-0.194 E-score
CTATTCAA	0.154 E-score
GCTAGAGC	-0.091 E-score
AAACATCA	0.128 E-score
ACATGCAG	0.0839 E-score
GGCGGAAA	-0.0676 E-score
AAGTGGAC	-4.12e-06 E-score
GATTTATA	0.304 E-score

Sequence	binding signal
CGACGGAG	-0.158 E-score
CGATGACA	-0.0553 E-score
CTTATAGC	0.105 E-score
CAGTGCCG	-0.128 E-score
AAAGTCTT	-0.0704 E-score
CACGCTCC	-0.132 E-score
CTAGGGAC	0.0511 E-score
GCGCCCAC	-0.236 E-score
AGCACGAT	0.0894 E-score
CTACCTCC	0.167 E-score
AGTAAGTG	0.152 E-score
AGGAAATC	0.0504 E-score
AAGGGTGT	-0.0142 E-score
CTCAGCAC	-0.156 E-score
GGTTCCTA	0.0539 E-score
CCCACGTC	-0.222 E-score
ATGCCAAC	-0.0774 E-score
GACGAGTC	-0.0746 E-score
ACTGGTCA	-0.0495 E-score
AGGGCCCG	-0.247 E-score
AGTAGACC	0.0544 E-score
GGATTCAC	-0.0342 E-score

Sequence	binding signal
AATAATCC	0.0954 E-score
AGGTAGAA	0.433 E-score
AGTGCACC	-0.075 E-score
ACATACAC	0.179 E-score
CCAGATAC	0.0727 E-score
CCACCAAA	0.0115 E-score
CCCCATAC	-0.121 E-score
CAATAGGC	-0.168 E-score
AGAGTTAA	0.085 E-score
AAAGTGCG	-0.107 E-score
AGAATTCC	0.151 E-score
AGCCAACA	-0.128 E-score
GCACCGAC	-0.199 E-score
CACGGATA	-0.0437 E-score
AACTCAGC	0.019 E-score
CCCGTTAG	-0.257 E-score
CTATAGAA	0.283 E-score
GGAGAAGA	0.00625 E-score
TGCGACAA	-0.0569 E-score
CCTCTTAG	0.029 E-score
CTTTCTTC	0.0829 E-score
AAAAGATA	0.137 E-score

Sequence	binding signal
GCACCGCC	-0.27 E-score
GAAGCGAC	-0.216 E-score
ATTGTCGG	-0.097 E-score
AACTAACA	0.126 E-score
ATGGCAAT	-0.0754 E-score
AGAAGGCG	-0.234 E-score
AAAAATTC	0.00754 E-score
ATACAACC	0.201 E-score
AGCCATAT	0.145 E-score
GTAGATTA	0.344 E-score
CTACTGCA	0.0822 E-score
GACTGCCA	-0.228 E-score
ACTCGTCC	-0.0994 E-score
CGACCATC	-0.173 E-score
AAACTCCC	0.0527 E-score
CACCTCGA	-0.145 E-score
GAATGAAC	-0.00783 E-score
CAGTCAGA	-0.00775 E-score
ACAGTCCA	-0.301 E-score
CCTAAAGG	-0.344 E-score
GGCTAGTA	0.115 E-score
